PubChem BioAssay AID2546 (National Center for Advancing Translational Sciences (NCATS), 2010)
About 11,000 (3.5%) of roughly 310,000 compounds were called active. The inconclusive results got no clear call from the source; some entries with a clear call stand among them for comparison. Calls come from the whole dose curve; as a rule, active = well fitted inhibition curve with a large enough effect; inconclusive = small, poorly fitted or top-dose-only effect, or effect the other way; inactive = flat fitted curve, though single readings scatter. Potencies of inconclusive entries are left out as doubtful fits.
% is set by controls: 0 for no effect and ±100 for the full control effect; potency is the fitted concentration of half-maximal effect; tags give direction and shape of the fitted curve.

Assay: VP16 counterscreen qHTS for inhibitors of ROR gamma transcriptional activity;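 note: Gal4-VP16 expression switched on by copper sulfate through the metallothionein promoter; nearly all actives have a fitted effect of over 50% in size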
Conditions: Drosophila S2 Gal4-VP16 UAS-luciferase, luminescence, 20 h; activity, negative = inhibition: at 53.6 µM (top of the series)
In the case of CCOC(=O)N1CCN(CC(O)COc2cc(C)ccc2C(C)C)CC1 (stereo not drawn), the “activity, negative = inhibition” value is reported as inactive: 6.15%. With FC(F)(F)c1nc2ccccc2nc1N/N=C/c1c(Cl)cccc1Cl the Potency was inconclusive [inhibitor, single point]. In the case of CSC1=NC2(CCCCC2)CC12C=CC(=O)C=C2, the “activity, negative = inhibition” value is reported as inactive: -0.703%. In the case of Cc1cccc(/C(N)=N/OC(=O)c2ccc(Br)o2)c1, the Potency is reported as inconclusive [inhibitor, single point]. For Cc1ccc(CNc2ncnc3cc(Cl)ccc23)o1, the Potency was inconclusive [inhibitor, single point]. In the case of Cc1ccccc1N=CC=C1OC(C)(C)C(C)(C)O1, the Potency is reported as inconclusive [inhibitor, single point]. With Cc1cccc(C)c1NC(=O)CCn1cnc2ccccc2c1=O the “activity, negative = inhibition” value was inactive: -9.2%. With Cc1cccc(NC(=S)NCC(c2ccccc2)N(C)C)c1 (stereo not drawn) the Potency was active: 10 µM. With O=C(NC1CCCCC1)C12CC3CC(C1)CC(n1cncn1)(C3)C2 the “activity, negative = inhibition” value was inactive: -6.85%. For Cn1ccc(C(=O)Nc2ccc3c(c2)OCCO3)n1, the Potency was inconclusive [inhibitor, single point]. In the case of CN1CC(=O)NC1=NC(=O)c1ccc(Cl)c(S(=O)(=O)N2CCCCCC2)c1, the Potency is reported as active: 15.8 µM. For CN(Cc1ccccc1)/C(=N/O)c1cccc(Cl)c1, the “activity, negative = inhibition” value was inactive: 0.522%. In the case of NC(=O)C1(N2CCCCC2)CCN(CC(=O)Nc2cc(Cl)ccc2Cl)CC1, the “activity, negative = inhibition” value is reported as inactive: 2.25%. In the case of O=CN1CCN(C2CC(=O)N(c3ccc(Br)cc3)C2=O)CC1 (stereo not drawn), the “activity, negative = inhibition” value is reported as inactive: -7.35%. For COc1ccc(C)cc1NC(=O)C(OC(=O)C1CC1)c1ccccc1 (stereo not drawn), the Potency was inconclusive [activator, single point]. With O=C(/C=C/c1ccccc1F)c1ccoc1 the Potency was inconclusive [inhibitor, single point]. For CC(=O)c1ccc(Sc2nnnn2-c2ccccc2)c([N+](=O)[O-])c1, the Potency was active: 11.2 µM. In the case of CN(C)c1ccc(-c2ccc3ncnc(-n4ccnc4)c3c2)cc1, the Potency is reported as active: 12.6 µM. In the case of COC(=O)c1ccc(-c2nn(C)c(=O)c3ccccc23)cc1, the “activity, negative = inhibition” value is reported as inactive: -1.64%. With CC1=CC(c2ccccc2)n2nc(NS(=O)(=O)c3ccc(C)cc3)nc2N1 (stereo not drawn) the Potency was inconclusive [inhibitor, full curve]. With C=C1CCN(C(CC(C)C)C(=O)NCc2ccc(Cl)c(Cl)c2)S(=O)(=O)c2ccccc21 (stereo not drawn) the “activity, negative = inhibition” value was inactive: 3.29%. In the case of Cc1nc2ccccn2c1C(=O)Nc1ccc(Cl)cc1, the Potency is reported as inconclusive [activator, full curve, poor fit]. For Cc1ccc(-n2ncc3c(=O)[nH]c(SCC(=O)N4CCCC4)nc32)cc1C, the Potency was inconclusive [activator, single point]. For C=C(C)CSc1nc2c(c(=O)[nH]c(=O)n2C)n1Cc1ccccc1, the Potency was inconclusive [inhibitor, single point]. With C/C(=N\NC(=O)C1CC1)c1ccccc1O the Potency was active: 6.31 µM. In the case of Cc1cc(N)n2nc(-c3ccc(C(C)(C)C)cc3)cc2n1, the Potency is reported as inconclusive [inhibitor, single point]. For CCCCN(C)C(=O)Cn1cnc2sc(C)c(S(=O)(=O)N3CCN(c4ccccc4OC)CC3)c2c1=O, the “activity, negative = inhibition” value was inactive: 3.41%. With O=C(CN1C(=O)S/C(=C\c2ccccc2)C1=O)NNC(=O)c1ccccc1O the “activity, negative = inhibition” value was inactive: -9.48%. With N#C/C(=C\c1ccc(C(=O)O)cc1)c1ccccn1 the Potency was inconclusive [activator, single point]. With Cc1cc(C)n(-c2nc(SCC(=O)Nc3nccs3)c3c4c(sc3n2)COC(C)(C)C4)n1 the Potency was inconclusive [inhibitor, full curve, poor fit]. In the case of CCOC(=O)c1c(NC(=S)Nc2ccc(C)cc2)sc2c1CCC2, the Potency is reported as inconclusive [inhibitor, single point]. For Cc1ccc2nc(NC(=O)C3CCN(S(=O)(=O)c4cc([N+](=O)[O-])ccc4Cl)CC3)sc2c1, the Potency was inconclusive [inhibitor, single point]. With COC(=O)c1ccc(NC(=O)COc2ccc([N+](=O)[O-])cc2)cc1 the Potency was active: 10 µM. For CC(/C=C/C=C/c1ccccc1)=N/NC(=O)c1ccc2c(c1)OCCO2, the “activity, negative = inhibition” value was inactive: 8%. With O=C(c1cccc([N+](=O)[O-])c1)c1ccccn1 the “activity, negative = inhibition” value was inactive: 2.07%. In the case of CC(C)(C)NC(=O)NC(=O)COC(=O)c1cccc(OC(F)F)c1, the Potency is reported as inconclusive [inhibitor, single point]. With N#C/C(=C(\O)Cc1ccccc1)c1nc2ccccc2[nH]1 the Potency was inconclusive [inhibitor, partial curve]. In the case of CN(Cc1cccs1)C(=O)CSc1nnnn1C, the “activity, negative = inhibition” value is reported as inactive: 10.3%. With O=c1cc(O)c(Cl)c[nH]1 the “activity, negative = inhibition” value was inactive: 9.96%. With c1ccc(OCc2ccc(CCCN3CCOCC3)cc2)cc1 the Potency was “inactive”. With CCc1ccc(OCC(=O)Nc2ccncc2)cc1 the Potency was active: 3.55 µM. For Cc1occc1C(=O)N1N=C(C2CC2)CC1(O)C(F)(F)F (stereo not drawn), the Potency was inconclusive [inhibitor, single point]. In the case of CC1(C)C(/C=C/C=C/C=C/C=C2\N(CCCCS(=O)(=O)O)c3ccc4ccccc4c3C2(C)C)=[N+](CCCCS(=O)(=O)[O-])c2ccc3ccccc3c21, the Potency is reported as inconclusive [inhibitor, single point]. For COc1cccc(NC(=O)CSC(N)=O)c1, the Potency was inconclusive [inhibitor, single point]. With COc1cccc(NCc2cc(=O)oc3cc(-c4ccccc4)c(O)cc23)c1 the Potency was inconclusive [inhibitor, single point]. For O=[N+]([O-])c1ccc(-c2cnc(NO)nc2)cc1, the Potency was inconclusive [inhibitor, single point]. In the case of OCC1(CCOc2ccccc2)CCN(Cc2ccc(OC(F)F)cc2)CC1, the “activity, negative = inhibition” value is reported as inactive: -4.65%. For O=C(CCc1ccccc1)Nc1nnc(-c2ccccn2)o1, the Potency was inconclusive [inhibitor, single point]. For Cc1cccnc1Nc1nc(-c2ccc(F)cc2)cs1, the Potency was inconclusive [inhibitor, single point]. With CCc1ccc(NC(=O)CCC(=O)N2CCSc3ccccc32)cc1 the “activity, negative = inhibition” value was inactive: -2.83%. With Cc1ccc(C(C)C)cc1NC(=O)Nc1ccc([N+](=O)[O-])cc1 the Potency was active: 12.6 µM. For CC(=C1C(=O)c2ccccc2C1=O)N1CCN(CCN=CC2=C(O)CC(C)(C)CC2=O)CC1, the “activity, negative = inhibition” value was inactive: -3.17%. With CCSC1(SCC)N=C(N)C2(C#N)C(c3ccc(F)cc3)C12C#N (stereo not drawn) the Potency was inconclusive [inhibitor, single point]. In the case of OC[C@@H]1O[C@H](OC2[C@@H](O)[C@@H](O)[C@@H](O)O[C@@H]2CO)[C@H](O)[C@@H](O)[C@@H]1OC1O[C@H](CO)[C@@H](O)[C@H](O)[C@@H]1O (stereo partly drawn), the “activity, negative = inhibition” value is reported as inactive: -2.65%. With CCCOc1ccc(-c2cnc(N)s2)cc1 the Potency was inconclusive [activator, full curve, poor fit]. In the case of O=C(c1ccccc1)n1c(=S)nc2ccccn21, the Potency is reported as inconclusive [inhibitor, single point]. In the case of CCc1nc(Cl)c(C#N)c2c1CSC(C)(C)C2, the “activity, negative = inhibition” value is reported as inactive: -6.34%. In the case of CN1CCN(c2ccnc(-c3cccnc3)n2)CC1, the “activity, negative = inhibition” value is reported as inactive: 4.69%. For Cc1cccn2c(Nc3ccccc3)c(-c3ccccn3)nc12, the Potency was active: 5.01 µM. In the case of CC(C)(C)c1ccc(C(=O)CC(=O)c2cc(Cl)ccc2O)cc1, the Potency is reported as inconclusive [inhibitor, single point]. With Cn1c(SC(C(=O)Nc2ccc(F)cc2)c2ccccc2)nc2ccccc21 (stereo not drawn) the Potency was inconclusive [inhibitor, single point]. With Cc1ccc(C(O)(COC(=O)C(C)C)COC(=O)C(C)C)c(O)c1 the Potency was active: 31.6 µM. For CCn1cc([N+](=O)[O-])c(C(=O)N2N=C(c3ccc(O)c(OC)c3)CC2c2ccccc2O)n1 (stereo not drawn), the Potency was inconclusive [inhibitor, partial curve, poor fit]. With CC(C)NC(=S)N/N=C/c1ccccc1[N+](=O)[O-] the Potency was active: 5.62 µM. For CC(C)C(=O)NC(C)C(c1cccs1)N1CCOCC1 (stereo not drawn), the “activity, negative = inhibition” value was inactive: -5.83%. With Cc1c(Cl)cccc1NC(=S)NCC(c1cccnc1)N(C)C (stereo not drawn) the “activity, negative = inhibition” value was inactive: 2.76%. With CS(=O)(=O)n1nc(-c2ccc(Cl)cc2)nc1N the “activity, negative = inhibition” value was inactive: -23.4%. With Cc1ccc(-c2noc(CCC(=O)NCC3CCN(Cc4cccc(C)c4)CC3)n2)cc1 the Potency was inconclusive [inhibitor, single point]. In the case of COc1ccc(N(CC(O)Cn2c(C)nc3ccccc32)S(=O)(=O)c2ccc(C)cc2)cc1 (stereo not drawn), the Potency is reported as inconclusive [activator, single point]. In the case of CN(C)S(=O)(=O)c1cccc(CSCc2cccc(S(=O)(=O)N(C)C)c2)c1, the Potency is reported as inconclusive [inhibitor, single point]. With CCN(CC(=O)Nc1c(F)cccc1F)C(=O)CNC(=O)c1cccc(C)c1 the “activity, negative = inhibition” value was inactive: 11%. For Cc1nc2ccccc2cc1C(=O)N/N=C/c1ccco1, the Potency was inconclusive [inhibitor, single point]. In the case of CCC(C)n1c(SCC(=O)NC(=O)c2cccn2C)nc2ccccc2c1=O (stereo not drawn), the Potency is reported as inconclusive [inhibitor, single point]. In the case of O=C1CC(=O)N(Cc2ccco2)C(=S)N1, the “activity, negative = inhibition” value is reported as inactive: 2.03%. In the case of O=C(c1cc2nc(-c3ccc(F)cc3)cc(C(F)(F)F)n2n1)N1CCCCC1c1cccnc1 (stereo not drawn), the Potency is reported as inconclusive [inhibitor, single point]. With Cc1cc(NC(=O)CN2CCOCC2)n(-c2ccccc2)n1 the “activity, negative = inhibition” value was inactive: -28.4%. In the case of Cc1cc(CNC(=O)c2cccc([N+](=O)[O-])c2C)c2ccccc2n1, the Potency is reported as active: 10 µM. With O=C(CCCCCNc1nc(=S)[nH]c2ccccc12)NCc1ccccc1Cl the Potency was inconclusive [inhibitor, partial curve, poor fit].
